Hit rate of the full screen: of about 39,000 compounds, about 220 (0.56%) showed activity. The list shows a part of the results.
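Note: static incubation at 37 °C against the wild-type strain, values averaged over two biological replicates.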

This experiment has as its system Escherichia coli K-12 BW25113. Put plainly: relative growth (OD600 normalised to plate interquartile mean) (fraction); higher = less growth inhibition, active = 0.2 or less. As to conditions: 50 µM; LB; incubation time: overnight (16-24 h).
With `CNC(=O)Cn1cc(Br)cn1`, the relative growth was inactive: 1.03.

On to `COc1ccc(S(=O)(=O)Nc2ccc3c(c2)C(=O)N([C@@H](C)CO)C[C@H](C)[C@@H](CN(C)Cc2ccc(Cl)c(Cl)c2)OCCCC[C@H](C)O3)cc1`, for which the relative growth was inactive: 0.991.

Turning to `C=C1CCC=C(C)CCC2C1CC2(C)C.O` (single isomer, unassigned; (-)) [(-)E-CARYOPHYLLENE hydrate], the relative growth was inactive: 1.06.

As to `C[C@H](CO)N1C[C@H](C)[C@H](CN(C)S(=O)(=O)c2ccc(F)cc2)Oc2ncc(-c3ccncc3)cc2C1=O`, the relative growth is inactive: 1.02.

Take `C[C@H](CO)N1C[C@H](C)[C@H](CN(C)C(=O)c2ccccn2)Oc2cc(C#Cc3ccc(F)cc3)ccc2S1(=O)=O`: the relative growth was inactive: 1.03.

As to `C[C@@H]1CCCCO[C@@H](CN(C)S(=O)(=O)c2cccs2)[C@@H](C)CN([C@H](C)CO)C(=O)c2cc(NC(=O)Nc3cccc4ccccc34)ccc2O1`, the relative growth was inactive: 1.01.

Regarding `C[N+](C)(C)CCCCCC[N+](C)(C)C.[Br-].[Br-]`, the relative growth is inactive: 0.862.

As for `CO[C@H]1CN(C)C(=O)c2cc(NC(C)=O)ccc2OC[C@H](C)N(S(=O)(=O)c2cn(C)cn2)C[C@@H]1C`, the relative growth is inactive: 0.993.

On to `C[C@H]1CN([C@@H](C)CO)C(=O)c2cc(NC(=O)CCCN(C)C)ccc2O[C@H]1CN(C)S(=O)(=O)c1ccccc1`, for which the relative growth is inactive: 1.

Turning to `O=C(C[C@H]1CC=CC[C@H](NC(=O)OCC2c3ccccc3-c3ccccc32)C(=O)OCCNC1=O)NCCO`, the relative growth was inactive: 1.03.

For `CC(C)NC(=O)Nc1ccc2c(c1)C(=O)N([C@H](C)CO)C[C@@H](C)[C@H](CN(C)Cc1ccc(Cl)c(Cl)c1)OCCCC[C@@H](C)O2`, the relative growth is inactive: 1.02.

Take `CN1CCN(C(=O)C[C@@H]2CC[C@H]3[C@@H](COC[C@@H](O)CN3Cc3ccc4c(c3)OCO4)O2)CC1`: the relative growth is inactive: 0.988.

For `O=C(NCc1nc2ccccc2[nH]1)C1=C[C@@H](c2ccc(Br)cc2)C[C@@H](OCc2ccc(CO)cc2)O1`, the relative growth is inactive: 0.992.

For the compound `CC(C)NC(=O)N(C)C[C@H]1Oc2ccc(NS(=O)(=O)c3cccs3)cc2CC(=O)N([C@@H](C)CO)C[C@H]1C`, the relative growth is inactive: 1.03.

As to `C[C@H](CO)N1C[C@H](C)[C@H](CN(C)C(=O)c2ccc3c(c2)OCO3)Oc2cc(C#Cc3ccccc3F)ccc2S1(=O)=O`, the relative growth was inactive: 1.02.

Turning to `Cn1c(=O)[nH]c(=O)c2c1nc(N1CCN(CC(N)=O)CC1)n2C/C=C/c1ccccc1`, the relative growth is inactive: 0.988.

`CCOC(=O)C1=C(C)NC(c2ccccc2)=C(C(=O)OCc2ccc([N+](=O)[O-])cc2)[C@@H]1C#Cc1ccccc1`: the relative growth is inactive: 1.04.

For `COc1ccc(NC(=O)Nc2ccc3c(c2)C(=O)N([C@@H](C)CO)C[C@H](C)[C@@H](CN(C)Cc2ccc(C(F)(F)F)cc2)OCCCC[C@@H](C)O3)cc1`, the relative growth is inactive: 0.987.

As for `C[C@H]1CN([C@@H](C)CO)C(=O)c2cc(C#Cc3cccnc3)cnc2O[C@H]1CN(C)S(C)(=O)=O`, the relative growth is inactive: 1.04.

On to `C[C@H](CO)N1C[C@H](C)[C@@H](CN(C)S(=O)(=O)c2ccccc2)Oc2ccc(NC(=O)CCC(F)(F)F)cc2CC1=O`, for which the relative growth was inactive: 1.02.

On to `CN1C(=O)c2cc(NS(=O)(=O)c3cccc(F)c3)ccc2OC[C@H]2O[C@H](CC(=O)NCCN3CCCCC3)CC[C@H]21`, for which the relative growth was inactive: 0.983.

In the case of `O=C(C[C@@H]1C[C@@H]2c3cc(NC(=O)C4CCOCC4)ccc3O[C@@H]2[C@@H](CO)O1)NCc1ccc2c(c1)OCO2`, the relative growth is inactive: 1.02.

As for `COc1cccc(S(=O)(=O)N(C)C[C@@H]2Oc3cc(C4=CCCC4)ccc3S(=O)(=O)N([C@@H](C)CO)C[C@@H]2C)c1`, the relative growth is inactive: 1.03.

Regarding `C[C@H]1CN([C@@H](C)CO)C(=O)CCCn2cc(nn2)CO[C@@H]1CN(C)C(=O)Nc1ccc2c(c1)OCO2`, the relative growth is inactive: 0.986.

Consider `C[C@@H]1CN([C@H](C)CO)C(=O)c2cccc(NC(=O)Nc3ccc(C(F)(F)F)cc3)c2O[C@@H]1CN(C)Cc1ccncc1`, for which the relative growth was inactive: 0.972.

For `COc1ccc(S(=O)(=O)Nc2ccc3c(c2)C(=O)N([C@@H](C)CO)C[C@@H](C)[C@H](CN(C)CC2CC2)O3)cc1`, the relative growth is inactive: 1.02.

For `C[C@H](CO)N1C[C@H](C)[C@@H](CN(C)C(=O)Nc2ccccc2)Oc2c(NC(=O)CCCCCC(=O)Nc3ccccc3N)cccc2C1=O`, the relative growth is inactive: 1.

Turning to `COc1ccccc1CNC(=O)C[C@H]1C[C@H]2c3cc(NC(=O)Nc4ccc(C(F)(F)F)cc4)ccc3O[C@H]2[C@H](CO)O1`, the relative growth was inactive: 0.981.

Regarding `NC(=S)CN1CCCC1=O`, the relative growth is inactive: 1.03.

In the case of `C[C@H]1CN([C@@H](C)CO)C(=O)CCCn2nncc2CO[C@@H]1CN(C)C(=O)Nc1ccc(N2CCCCC2)cc1`, the relative growth is inactive: 1.

Consider `O=C(N[C@@H]1CC[C@@H](CCNS(=O)(=O)c2ccccc2)O[C@@H]1CO)c1cnccn1`, for which the relative growth was inactive: 1.01.

Take `C[C@@H]1CCCCO[C@@H](CN(C)C(=O)Nc2ccc3c(c2)OCO3)[C@@H](C)CN([C@@H](C)CO)C(=O)c2cc(NC(=O)NC3CCCCC3)ccc2O1`: the relative growth is inactive: 1.

As to `C[C@@H]1CN([C@H](C)CO)C(=O)c2cccc(NC(=O)CCCCCC(=O)Nc3ccccc3N)c2O[C@H]1CN(C)Cc1ccc(Oc2ccccc2)cc1`, the relative growth was inactive: 1.01.

As to `COCC(=O)N1CC[C@@H](O)[C@@H]1Cc1cnn(C)c1`, the relative growth is inactive: 0.953.

Take `COc1ccc(S(=O)(=O)N(C)C[C@@H]2OCCCC[C@@H](C)Oc3ccc(NC(=O)CCC(F)(F)F)cc3C(=O)N([C@@H](C)CO)C[C@H]2C)cc1`: the relative growth was inactive: 1.01.

For the compound `OC[C@@H]1CC[C@@H]2O[C@H](CCc3ccc(C#CCc4ccccc4)cc3)[C@@H](n3cc(-c4ccccc4)nn3)C[C@@H]2O1`, the relative growth was inactive: 1.01.

For the compound `O=C(O)C=CC=Cc1ccc2c(c1)OCO2`, the relative growth was inactive: 0.963.

Turning to `N/N=C(\C(=O)O)c1ccccc1N`, the relative growth is inactive: 1.02.

For the compound `C[C@@H]1CN([C@@H](C)CO)C(=O)c2cc(NC(=O)Cn3cnnn3)ccc2O[C@@H]1CN(C)CC1CC1`, the relative growth was inactive: 1.05.

`C[C@@H]1CN([C@H](C)CO)C(=O)c2cc(NS(=O)(=O)c3cccs3)ccc2O[C@@H]1CN(C)Cc1ccc(Cl)c(Cl)c1`: the relative growth is inactive: 0.99.

Turning to `COc1ccc(S(=O)(=O)N(C)C[C@H]2OCCCC[C@@H](C)Oc3ccc(NC(=O)Nc4cccc5ccccc45)cc3C(=O)N([C@H](C)CO)C[C@@H]2C)cc1`, the relative growth was inactive: 0.992.

Consider `C[C@@H]1CN([C@H](C)CO)C(=O)c2c(c3ccccc3n2C)-c2ccccc2CO[C@H]1CN(C)Cc1ccc(Oc2ccccc2)cc1`, for which the relative growth was inactive: 1.02.

For the compound `CN(C)c1cc[n+](C(=O)N2CCOCC2)cc1`, the relative growth was inactive: 0.979.

For the compound `Cc1noc(C)c1NC(=O)N(C)C[C@H]1Oc2c(NC(=O)NC(C)C)cccc2C(=O)N([C@@H](C)CO)C[C@H]1C`, the relative growth was inactive: 1.03.

On to `COCC(=O)N1C[C@@H](C)[C@@H](OC)CN(C)C(=O)c2ccc(NC(=O)c3ccc(OC)cc3)cc2OC[C@@H]1C`, for which the relative growth is inactive: 0.992.

As to `NNC(=O)c1ccc(/C=N\O)nc1`, the relative growth is inactive: 0.975.

Regarding `CO[C@H]1CN(C)C(=O)c2cc(NC(=O)C3CC3)ccc2OC[C@H](C)N(C(=O)CN2CCOCC2)C[C@H]1C`, the relative growth was inactive: 0.988.

With `O=c1cc(CO)occ1O`, the relative growth was inactive: 1.02.

For the compound `CO[C@H]1CN(C)C(=O)c2cc(NS(=O)(=O)CC(F)(F)F)ccc2OC[C@H](C)N(Cc2ccccn2)C[C@@H]1C`, the relative growth was inactive: 1.02.

For `CO[C@@H]1CN(C)C(=O)c2cc(NC(=O)C3CC3)ccc2OC[C@H](C)N(C(=O)CN2CCOCC2)C[C@H]1C`, the relative growth was inactive: 0.979.

For `COc1ccc(S(=O)(=O)N(C)C[C@@H]2Oc3cc(C#CC4CC4)ccc3S(=O)(=O)N([C@H](C)CO)C[C@H]2C)cc1`, the relative growth is inactive: 1.02.

With `C[C@@H]1CCCCO[C@H](CN(C)S(=O)(=O)c2ccccc2)[C@@H](C)CN([C@@H](C)CO)C(=O)c2cc(NC(=O)Nc3ccccc3)ccc2O1`, the relative growth was inactive: 1.03.

Consider `N=C(C[n+]1ccccc1)NO`, for which the relative growth is inactive: 1.05.

Consider `CN1C(=O)c2cc(NC(=O)C3CCC3)ccc2OC[C@@H]2O[C@H](CC(=O)NCCc3ccncc3)CC[C@H]21`, for which the relative growth was inactive: 1.05.

On to `C[C@@H]1CN([C@H](C)CO)C(=O)c2c(c3ccccc3n2C)-c2ccccc2CO[C@@H]1CN(C)C(=O)Nc1ccc2c(c1)OCO2`, for which the relative growth was inactive: 0.991.

Regarding `C[C@@H]1CN([C@@H](C)CO)C(=O)c2cccc(NC(=O)C3CC3)c2O[C@H]1CN(C)S(=O)(=O)c1ccc(Cl)cc1`, the relative growth is inactive: 0.979.

On to `Cc1noc(C)c1NC(=O)N(C)C[C@H]1Oc2c(NS(=O)(=O)c3ccccc3)cccc2C(=O)N([C@@H](C)CO)C[C@@H]1C`, for which the relative growth is inactive: 1.01.

`C[C@@H]1CCCCO[C@H](CN(C)Cc2ccc(Cl)c(Cl)c2)[C@@H](C)CN([C@@H](C)CO)C(=O)c2cc(NC(=O)Nc3cccc4ccccc34)ccc2O1`: the relative growth was inactive: 1.06.

With `COc1ccc(C(=O)Nc2cccc(CN3C(=O)[C@]4(O[C@H](CC(=O)N5CCC[C@H]5CO)[C@@H]([Si](C)(C)c5ccc(OC)cc5)[C@@H]4C)c4ccccc43)c2)cc1`, the relative growth is inactive: 1.03.

Take `C[C@@H]1CN([C@H](C)CO)C(=O)c2cc(NS(=O)(=O)c3ccccc3)ccc2O[C@@H](C)CCCCO[C@H]1CN(C)Cc1ccc(C(F)(F)F)cc1`: the relative growth was inactive: 1.07.

Take `C[C@@H]1CCCCO[C@@H](CN(C)CC2CCCCC2)[C@H](C)CN([C@@H](C)CO)C(=O)c2cc(NS(=O)(=O)c3ccc(Cl)cc3)ccc2O1`: the relative growth was inactive: 0.979.

Turning to `O=C(C[C@H]1CC[C@@H]2[C@H](COC[C@H](O)CN2C(=O)Nc2cccc(Cl)c2)O1)NCCCN1CCOCC1`, the relative growth was inactive: 1.01.

The record behind these values is the supplement of paper PMC9446081.
